# Results reported in the supplement of paper PMC8728848.
# The other results are listed elsewhere or left out.
# B1: Mg3lysM (Mycosphaerella graminicola) (protein)
# chain: APQNPPTSCSAAPQPTGTGSPGTVCGSTTFTNYTVKAGDTLGAIAKQYNSGVCDIAKVNGIDNPDYIKPDQVLSIPANCVTPDNTSCVKPVPVITNTCVLGVGSTYTVKSGDSFSAIATSFNITLASLEARNPQIPNYDLIFPGQVINTPLCPNSVCDSIGTYVIESGDIFYNLAQSNNVTVGQLESLNVNVNVTDIHPGDIIILPHNCHNITASA
# What was measured:
# Assay in all cases: glycan array binding signal (z-score within array); higher = stronger binding
# Details in all cases: glycan notation: IUPAC condensed, linker removed
# [1] = biological target: Neu5Ac(a2-3)Gal(b1-4)GlcNAc(b1-6)GalNAc
# Procedure, shortened: (§1)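 The Consortium for Functional Glycomics database supplied 3228 glycan arrays, of which those lacking an available protein sequence were dropped. The binding signal, a within-array Z-score, was averaged across arrays of the same protein sequence and across linkers. Negative scores can be read as non-binding.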
# [2] = biological target: Neu5Ac(a2-3)Gal(b1-4)GlcNAc(b1-6)[Gal(b1-3)]GalNAc
# Procedure, shortened: as §1
# [3] = biological target: Neu5Ac(a2-3)Gal(b1-4)GlcNAc(b1-6)[Neu5Ac(a2-3)Gal(b1-3)]GalNAc
# Procedure, shortened: as §1
# [4] = biological target: Neu5Ac(a2-3)Gal(b1-4)GlcNAc6S
# Procedure, shortened: as §1
# [5] = biological target: Neu5Ac(a2-3)Gal(b1-4)[Fuc(a1-3)]GlcNAc
# Procedure, shortened: as §1
# [6] = biological target: Neu5Ac(a2-3)Gal(b1-4)[Fuc(a1-3)]GlcNAc(b1-2)Man
# Procedure, shortened: as §1
# [7] = biological target: Neu5Ac(a2-3)Gal(b1-4)[Fuc(a1-3)]GlcNAc(b1-3)Gal
# Procedure, shortened: as §1
# [8] = biological target: Neu5Ac(a2-3)Gal(b1-4)[Fuc(a1-3)]GlcNAc(b1-3)Gal(b1-4)GlcNAc
# Procedure, shortened: as §1
# [9] = biological target: Neu5Ac(a2-3)Gal(b1-4)[Fuc(a1-3)]GlcNAc(b1-3)Gal(b1-4)[Fuc(a1-3)]GlcNAc(b1-3)Gal(b1-4)[Fuc(a1-3)]GlcNAc
# Procedure, shortened: as §1
# [10] = biological target: Neu5Ac(a2-3)Gal(b1-4)[Fuc(a1-3)]GlcNAc(b1-3)GalNAc
# Procedure, shortened: as §1
# [11] = biological target: Neu5Ac(a2-3)Gal(b1-4)[Fuc(a1-3)]GlcNAc(b1-6)[Gal(b1-3)]GalNAc
# Procedure, shortened: as §1
# [12] = biological target: Neu5Ac(a2-3)Gal(b1-4)[Fuc(a1-3)]GlcNAc(b1-6)[Neu5Ac(a2-3)Gal(b1-3)]GalNAc
# Procedure, shortened: as §1
# [13] = biological target: Neu5Ac(a2-3)Gal(b1-4)[Fuc(a1-3)]GlcNAc6S
# Procedure, shortened: as §1
# [14] = biological target: Neu5Ac(a2-3)Gal6S(b1-4)GlcNAc
# Procedure, shortened: as §1
# [15] = biological target: Neu5Ac(a2-3)Gal6S(b1-4)[Fuc(a1-3)]GlcNAc
# Procedure, shortened: as §1
# Neu5Ac(a2-3)GalNAc = biological target: Neu5Ac(a2-3)GalNAc
# Procedure, shortened: as §1
# [16] = biological target: Neu5Ac(a2-3)GalNAc(b1-4)GlcNAc
# Procedure, shortened: as §1
# [17] = biological target: Neu5Ac(a2-3)[GalNAc(b1-4)]Gal(b1-4)Glc
# Procedure, shortened: as §1
# [18] = biological target: Neu5Ac(a2-3)[GalNAc(b1-4)]Gal(b1-4)GlcNAc
# Procedure, shortened: as §1
# [19] = biological target: Neu5Ac(a2-3)[GalNAc(b1-4)]Gal(b1-4)GlcNAc(b1-3)GalNAc
# Procedure, shortened: as §1
# [20] = biological target: Neu5Ac(a2-3)[Neu5Ac(a2-6)]GalNAc
# Procedure, shortened: as §1
# Neu5Ac(a2-6)Gal = biological target: Neu5Ac(a2-6)Gal
# Procedure, shortened: as §1
# [21] = biological target: Neu5Ac(a2-6)Gal(b1-3)GlcNAc(b1-3)[Gal(b1-4)GlcNAc(b1-6)]Gal(b1-4)Glc
# Procedure, shortened: as §1
# Neu5Ac(a2-6)Gal(b1-4)Glc = biological target: Neu5Ac(a2-6)Gal(b1-4)Glc
# Procedure, shortened: as §1
# [22] = biological target: Neu5Ac(a2-6)Gal(b1-4)GlcNAc
# Procedure, shortened: as §1
# [23] = biological target: Neu5Ac(a2-6)Gal(b1-4)GlcNAc(b1-2)Man
# Procedure, shortened: as §1
# [24] = biological target: Neu5Ac(a2-6)Gal(b1-4)GlcNAc(b1-2)Man(a1-3)Man(b1-4)GlcNAc(b1-4)GlcNAc
# Procedure, shortened: as §1
# [25] = biological target: Neu5Ac(a2-6)Gal(b1-4)GlcNAc(b1-2)Man(a1-3)[Gal(b1-4)GlcNAc(b1-2)Man(a1-6)]Man(b1-4)GlcNAc(b1-4)GlcNAc
# Procedure, shortened: as §1
# [26] = biological target: Neu5Ac(a2-6)Gal(b1-4)GlcNAc(b1-2)Man(a1-3)[GlcNAc(b1-2)Man(a1-6)]Man(b1-4)GlcNAc(b1-4)GlcNAc
# Procedure, shortened: as §1
# [27] = biological target: Neu5Ac(a2-6)Gal(b1-4)GlcNAc(b1-2)Man(a1-3)[GlcNAc(b1-4)][Neu5Ac(a2-6)Gal(b1-4)GlcNAc(b1-2)Man(a1-6)]Man(b1-4)GlcNAc(b1-4)GlcNAc
# Procedure, shortened: as §1
# [28] = biological target: Neu5Ac(a2-6)Gal(b1-4)GlcNAc(b1-2)Man(a1-3)[Man(a1-6)]Man(b1-4)GlcNAc(b1-4)GlcNAc
# Procedure, shortened: as §1
# [29] = biological target: Neu5Ac(a2-6)Gal(b1-4)GlcNAc(b1-2)Man(a1-3)[Neu5Ac(a2-3)Gal(b1-4)GlcNAc(b1-2)Man(a1-6)]Man(b1-4)GlcNAc(b1-4)GlcNAc
# Procedure, shortened: as §1
# [30] = biological target: Neu5Ac(a2-6)Gal(b1-4)GlcNAc(b1-2)Man(a1-3)[Neu5Ac(a2-6)Gal(b1-4)GlcNAc(b1-2)Man(a1-6)]Man(b1-4)GlcNAc(b1-4)GlcNAc
# Procedure, shortened: as §1
# [31] = biological target: Neu5Ac(a2-6)Gal(b1-4)GlcNAc(b1-2)Man(a1-3)[Neu5Ac(a2-6)Gal(b1-4)GlcNAc(b1-2)Man(a1-6)]Man(b1-4)GlcNAc(b1-4)[Fuc(a1-6)]GlcNAc
# Procedure, shortened: as §1
# [32] = biological target: Neu5Ac(a2-6)Gal(b1-4)GlcNAc(b1-2)Man(a1-6)Man(b1-4)GlcNAc(b1-4)GlcNAc
# Procedure, shortened: as §1
# [33] = biological target: Neu5Ac(a2-6)Gal(b1-4)GlcNAc(b1-2)Man(a1-6)[Gal(b1-4)GlcNAc(b1-2)Man(a1-3)]Man(b1-4)GlcNAc(b1-4)GlcNAc
# Procedure, shortened: as §1
# [34] = biological target: Neu5Ac(a2-6)Gal(b1-4)GlcNAc(b1-2)Man(a1-6)[GlcNAc(b1-2)Man(a1-3)]Man(b1-4)GlcNAc(b1-4)GlcNAc
# Procedure, shortened: as §1
# [35] = biological target: Neu5Ac(a2-6)Gal(b1-4)GlcNAc(b1-2)Man(a1-6)[Man(a1-3)]Man(b1-4)GlcNAc(b1-4)GlcNAc
# Procedure, shortened: as §1
# [36] = biological target: Neu5Ac(a2-6)Gal(b1-4)GlcNAc(b1-2)[Neu5Ac(a2-6)Gal(b1-4)GlcNAc(b1-4)]Man(a1-3)[GlcNAc(b1-4)][Neu5Ac(a2-6)Gal(b1-4)GlcNAc(b1-2)[Neu5Ac(a2-6)Gal(b1-4)GlcNAc(b1-6)]Man(a1-6)]Man(b1-4)GlcNAc(b1-4)GlcNAc
# Procedure, shortened: as §1
# [37] = biological target: Neu5Ac(a2-6)Gal(b1-4)GlcNAc(b1-2)[Neu5Ac(a2-6)Gal(b1-4)GlcNAc(b1-4)]Man(a1-3)[GlcNAc(b1-4)][Neu5Ac(a2-6)Gal(b1-4)GlcNAc(b1-4)Man(a1-6)]Man(b1-4)GlcNAc(b1-4)GlcNAc
# Procedure, shortened: as §1
# [38] = biological target: Neu5Ac(a2-6)Gal(b1-4)GlcNAc(b1-2)[Neu5Ac(a2-6)Gal(b1-4)GlcNAc(b1-6)]Man(a1-6)[Neu5Ac(a2-6)Gal(b1-4)GlcNAc(b1-2)Man(a1-3)][GlcNAc(b1-4)]Man(b1-4)GlcNAc(b1-4)GlcNAc
# Procedure, shortened: as §1
# [39] = biological target: Neu5Ac(a2-6)Gal(b1-4)GlcNAc(b1-3)Gal(b1-3)GlcNAc
# Procedure, shortened: as §1
# [40] = biological target: Neu5Ac(a2-6)Gal(b1-4)GlcNAc(b1-3)Gal(b1-4)GlcNAc
# Procedure, shortened: as §1
# [41] = biological target: Neu5Ac(a2-6)Gal(b1-4)GlcNAc(b1-3)Gal(b1-4)GlcNAc(b1-2)Man(a1-3)[Neu5Ac(a2-6)Gal(b1-4)GlcNAc(b1-3)Gal(b1-4)GlcNAc(b1-2)Man(a1-6)]GalNAc
# Procedure, shortened: as §1
# [42] = biological target: Neu5Ac(a2-6)Gal(b1-4)GlcNAc(b1-3)Gal(b1-4)GlcNAc(b1-3)Gal(b1-4)GlcNAc
# Procedure, shortened: as §1
# [43] = biological target: Neu5Ac(a2-6)Gal(b1-4)GlcNAc(b1-3)Gal(b1-4)GlcNAc(b1-3)Gal(b1-4)GlcNAc(b1-2)Man(a1-3)[Neu5Ac(a2-6)Gal(b1-4)GlcNAc(b1-3)Gal(b1-4)GlcNAc(b1-3)Gal(b1-4)GlcNAc(b1-2)Man(a1-6)]GalNAc
# Procedure, shortened: as §1
binder,measurement,setting,value
B1,glycan array binding signal (z-score),[1],-0.052
same,glycan array binding signal (z-score),[2],-0.065
same,glycan array binding signal (z-score),[3],-0.086
same,glycan array binding signal (z-score),[4],-0.041
same,glycan array binding signal (z-score),[5],-0.145
same,glycan array binding signal (z-score),[6],-0.082
same,glycan array binding signal (z-score),[7],-0.101
same,glycan array binding signal (z-score),[8],-0.053
same,glycan array binding signal (z-score),[9],-0.121
same,glycan array binding signal (z-score),[10],0.019
same,glycan array binding signal (z-score),[11],-0.035
same,glycan array binding signal (z-score),[12],-0.033
same,glycan array binding signal (z-score),[13],0.04
same,glycan array binding signal (z-score),[14],-0.017
same,glycan array binding signal (z-score),[15],-0.14
same,glycan array binding signal (z-score),Neu5Ac(a2-3)GalNAc,-0.136
same,glycan array binding signal (z-score),[16],-0.065
same,glycan array binding signal (z-score),[17],-0.076
same,glycan array binding signal (z-score),[18],-0.088
same,glycan array binding signal (z-score),[19],-0.092
same,glycan array binding signal (z-score),[20],-0.068
same,glycan array binding signal (z-score),Neu5Ac(a2-6)Gal,-0.083
same,glycan array binding signal (z-score),[21],-0.064
same,glycan array binding signal (z-score),Neu5Ac(a2-6)Gal(b1-4)Glc,-0.086
same,glycan array binding signal (z-score),[22],-0.067
same,glycan array binding signal (z-score),[23],-0.092
same,glycan array binding signal (z-score),[24],0.073
same,glycan array binding signal (z-score),[25],-0.044
same,glycan array binding signal (z-score),[26],-0.094
same,glycan array binding signal (z-score),[27],-0.067
same,glycan array binding signal (z-score),[28],-0.067
same,glycan array binding signal (z-score),[29],-0.141
same,glycan array binding signal (z-score),[30],-0.06
same,glycan array binding signal (z-score),[31],-0.051
same,glycan array binding signal (z-score),[32],0.023
same,glycan array binding signal (z-score),[33],-0.047
same,glycan array binding signal (z-score),[34],-0.101
same,glycan array binding signal (z-score),[35],-0.087
same,glycan array binding signal (z-score),[36],-0.084
same,glycan array binding signal (z-score),[37],-0.074
same,glycan array binding signal (z-score),[38],-0.038
same,glycan array binding signal (z-score),[39],-0.098
same,glycan array binding signal (z-score),[40],-0.116
same,glycan array binding signal (z-score),[41],0.02
same,glycan array binding signal (z-score),[42],-0.073
same,glycan array binding signal (z-score),[43],0.091
